# From PubChem BioAssay AID463173 (ICCB-Longwood Screening Facility, Harvard Medical School, 2010)
# In all, about 52,000 compounds went through this assay and about 4,300 (8.3%) were called active. Rule as the data show it: active = survival mostly below about 52% (no sharp cut-off); inactive = mostly above about 56%. Some of the results follow.
# System: DeltatarO mutant
# Assay: S. aureus survival, RN4220 and DeltatarO strains – OD600, teichoic acid synthesis inhibitors, primary screen (AID 463173)
# Conditions: S. aureus RN4220 wild type/DeltatarO growth, OD600, 18 h, stronger effect = lower value, screened at 18.75 µg/mL (by protocol)
row,Structure (SMILES),survival
1,CCCCN(C)CCNC(=O)Cn1ncc2c3ccccc3n(CCC)c2c1=O,inactive: 109%
2,COc1ccc(C2(O)CCN(CC(=O)NC(C)C)CC2)cc1,inactive: 81%
3,Cc1csc2nc(-c3cccc(NC(=O)c4cccc(F)c4)c3)cn12,inactive: 124%
4,Cc1ccc(NC(=O)c2ncn(-c3ccccc3)n2)c(Cl)c1,inactive: 81%
5,Cc1cccc(-c2noc(CN(C(=O)c3ccc(C)c(C)c3)C(C)C)n2)c1,active: -3%
6,COc1ccc(C)cc1N(C)C(=O)c1sc2nc3n(c(=O)c2c1C)CCCCC3,inactive: 58%
7,CCOC(=O)Cn1nnnc1CN(CCc1ccc(OC)c(OC)c1)Cc1cc2c(C)ccc(C)c2[nH]c1=O,inactive: 85%
8,CN(C(=O)c1cc2sccc2n1C)C1CCCCC1,inactive: 100%
9,Cc1nc2cc(-c3cccc(F)c3)nn2c(C)c1CCC(=O)N1CCN(c2ccc(F)cc2)CC1,inactive: 56%
10,CCOC(=O)c1cccc(NC(=O)CC(c2ccc(F)cc2)N2Cc3ccccc3C2=O)c1 (stereo not drawn),inactive: 92%
11,O=S(=O)(c1ccccc1)c1nc(-c2ccc(F)cc2)oc1N1CCOCC1,inactive: 90%
12,CCOc1cc(C#N)c(NC(=O)c2ccc(OC)c(S(=O)(=O)N3CCCC3)c2)cc1OCC,inactive: 52%
13,CCCOc1ccc(OC(=O)c2sc3ncn(Cc4cccc(F)c4)c(=O)c3c2C)cc1,inactive: 84%
14,O=C(c1nc(-c2ccc(Cl)cc2)n2c1CCCCC2)N1CCN(c2ccc(F)cc2)CC1,inactive: 94%
15,CCN(Cc1ccccc1)C(=O)C1CCN(Cc2cc(Br)c(O)c(OC)c2)CC1,inactive: 105%
16,N#CC1=C(N)OC2=C(C(=O)CCC2)C1c1ccccc1C(F)(F)F (stereo not drawn),inactive: 78%
17,O=C(O)c1ccc(N2CCOCC2)cc1,inactive: 80%
18,CCOc1ccc(CCNC(=O)CSc2cc(=O)n(C)c3ccccc23)cc1OCC,inactive: 132%
19,O=C(NCC1(c2ccccc2)CCCC1)C(=O)Nc1cccc(C(F)(F)F)c1,inactive: 101%
20,COc1ccc2nc(NS(=O)(=O)c3ccc(C)cc3)c(Nc3cc(Cl)ccc3OC)nc2c1,active: 22%

row,Structure (SMILES),survival
1,CC1CCCc2c1nc(N)c(C#N)c2-c1ccccc1 (stereo not drawn),inactive: 105%
2,CCOc1ccc(CC(=O)NCCc2csc3nc(-c4ccccc4F)nn23)cc1,inactive: 91%
3,Cc1noc(/C=C/N(C)C)c1S(=O)(=O)N1CCCC(C(=O)Nc2cccc(F)c2)C1 (stereo not drawn),inactive: 90%
4,CCS(=O)(=O)Cc1cccs1,inactive: 86%
5,O=C1CC(c2ccccc2)Cc2[nH]c(=O)c(-c3nc(-c4cccc(Cl)c4)cs3)cc21 (stereo not drawn),inactive: 95%
6,O=C(CSc1nnc(CNc2ccccc2)o1)N1CCc2ccccc21,inactive: 98%
7,Cc1ccc(Cl)cc1N1CCN(C(c2ccc(F)cc2)c2nnc(-c3ccccc3)o2)CC1 (stereo not drawn),inactive: 55%
8,N#Cc1cc2cc(Br)ccc2oc1=O,inactive: 97%
9,COc1ccc(-c2cc(C(=O)N3CCN(c4ccccc4OC)CC3)c3cc(C(C)C)ccc3n2)cc1,inactive: 82%
10,COC(=O)c1sccc1S(=O)(=O)N1CCN(c2cccc(C)c2C)CC1,inactive: 89%
11,O=C(CSc1n[nH]c(-c2ccccc2)n1)N1CCCCC1,inactive: 83%
12,CCC(=O)N1CCc2cc(S(=O)(=O)CCC(=O)N3CCN(c4cccc(C)c4)C(C)C3)ccc21 (stereo not drawn),inactive: 76%
13,CCN(Cc1ccc(OC)cc1)c1ccc(-c2nc(-c3ccncc3)no2)cc1[N+](=O)[O-],active: 41%
14,Nc1cc(C(=O)c2ccccc2)ccc1N1CCOCC1,inactive: 110%
15,O=C(NCCc1ccccc1)c1ccc(Cn2c(SCc3ccc(F)cc3)nc3cccnc32)cc1,inactive: 95%
16,Cc1ccccc1Nc1c(-c2ccsc2)nc2c(C)cccn12,active: 8%
17,O=C(NCc1cccc(Cl)c1)c1cccn1-c1nnc(N2CCCC2)s1,active: 37%
18,Cc1cc(C)c(Cn2c3ccccc3c3cnn(CC(=O)NCCCc4ccccc4)c(=O)c32)c(C)c1,inactive: 119%
19,CC1CCN(C(=O)COc2ccc(C(C)C)cc2)CC1,inactive: 86%
20,COc1ccc(OC)c(S(=O)(=O)N2Cc3ccccc3CC2C(=O)Nc2ccc(C(C)=O)cc2)c1 (stereo not drawn),inactive: 63%

row,Structure (SMILES),survival
1,Cc1ccc(CNC(=O)c2nc(SCc3cccc(C)c3)ncc2Cl)cc1,inactive: 117%
2,Cc1ccc(CNC(=O)c2cn(C)c3ccc(S(=O)(=O)N(C)C4CCCCC4)cc3c2=O)cc1,inactive: 80%
3,CCc1ccc(-n2nc3ccc(NC(=O)c4cc5ccccc5o4)cc3n2)cc1,inactive: 65%
4,O=C(CC(c1ccccc1)c1ccccc1)NCc1ccco1,inactive: 92%
5,CCOc1ccc(-c2cc3c(=O)n(Cc4nc(-c5cccc(OC)c5OC)oc4C)ccn3n2)cc1Cl,inactive: 187%
6,O=C(c1ccccc1)N1CCc2cc(CNS(=O)(=O)c3ccccc3Cl)ccc21,inactive: 78%
7,COc1ccc(-c2ccc(C#N)c(SCc3ccccn3)n2)cc1,inactive: 71%
8,Cc1ccc(-c2nn3c(C)nnc3c3ccccc23)cc1S(=O)(=O)NCCO,inactive: 66%
9,Cc1cccc(N(CC(=O)NC(C)c2ccccc2)S(=O)(=O)c2ccccc2)c1C (stereo not drawn),inactive: 65%
10,CCOc1cc(C(=O)OCc2cc(=O)n3c(C)csc3n2)cc(OCC)c1OCC,active: -1%
11,CC(=O)Nc1ccc(S(=O)(=O)NCC2CCC(C(=O)NCCCOC(C)C)CC2)cc1 (stereo not drawn),inactive: 87%
12,CCCCN(c1ccccc1)c1ncnc2c1cnn2-c1ccc(Cl)cc1,inactive: 87%
13,Cc1ccccc1NC(=O)Cn1c(=O)n(Cc2ccc3c(c2)OCO3)c(=O)c2oc3ccccc3c21,inactive: 61%
14,Cc1cc(C)cc(C(=O)Nc2cc(C(F)(F)F)ccc2N2CCN(c3ccccc3)CC2)c1,inactive: 76%
15,Cc1ccc(-c2cn3cccc(C)c3n2)cc1NS(=O)(=O)c1ccccc1,active: 41%
16,O=C(CCC(=O)N1CCOc2ccccc21)NCc1cccs1,inactive: 70%
17,Cc1ccc2[nH]c3c(=O)n(CC(=O)N4CCN(c5ccccc5F)CC4)ncc3c2c1,inactive: 79%
18,CCN(c1ccccc1)c1ncnc2c1cnn2-c1ccc(OC)cc1,active: 52%
